According to PubChem BioAssay (NCI):
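Cells were grown in 96-well plates and exposed to each compound for 48 hours at five concentrations; endpoints were interpolated linearly between bracketing concentrations, or set to the highest concentration if not reached. GI50: concentration for 50% inhibition of growth.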 A number of entries come with more than one value. They are shown here; other results are not. There may be further records. For part of these data: The tests behind the records often covered other concentration ranges, not given here; a value can be the end of its range. What stands in brackets tells the records apart. A, B and so on number the origins entry by entry. For part of these data: Results that share an entry are repeated measurements across runs, samples, wells, individuals or studies.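 TGI denotes the concentration required for complete inhibition of growth.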

Columns and labels:
Assay in all cases: DTP human tumour cell line panel, 48 h
HCC-2998 colon = test system: HCC-2998 colon
SF-539 CNS = test system: SF-539 CNS
SK-MEL-28 melanoma = test system: SK-MEL-28 melanoma
SNB-75 CNS = test system: SNB-75 CNS
SR leukemia = test system: SR leukemia
NCI-H23 lung = test system: NCI-H23 lung
SN12C renal = test system: SN12C renal
BT-549 breast = test system: BT-549 breast
DU-145 prostate = test system: DU-145 prostate
EKVX NSCLC = test system: EKVX NSCLC
OVCAR-4 ovarian = test system: OVCAR-4 ovarian
T-47D breast = test system: T-47D breast
TK-10 renal = test system: TK-10 renal

`O=c1[nH]c(=O)n(C2CC(O)C(CO)O2)cc1F` (stereo not given) was tested, and the TGI (HCC-2998 colon) was 27.7 µM [sample A, mean of 2 tests] and 5.4 µM [sample A, mean of 3 tests] and 78.2 µM [sample A, mean of 69 tests] and > 100 µM [sample B, mean of 5 tests], the TGI (SF-539 CNS) was 259 nM [sample A, mean of 3 tests] and 3.88 µM [sample A, mean of 97 tests] and > 100 µM [sample B, mean of 5 tests] and the GI50 (SK-MEL-28 melanoma) was 5.74 µM [sample A, 1 test] and 3.11 µM [sample A, mean of 111 tests] and 2.17 µM [sample A, mean of 4 tests] and > 85.1 µM [sample B, mean of 5 tests]. For the same compound, the TGI (SNB-75 CNS) was > 2.5 mM [sample A, 1 test] and 214 µM [sample A, mean of 105 tests] and > 100 µM [sample B, mean of 4 tests] and the GI50 (SR leukemia) was 13.7 nM [sample A, mean of 3 tests] and 379 nM [sample A, mean of 59 tests] and > 59.8 µM [sample B, mean of 3 tests].

`CC[C@H](C)C(=O)O[C@H]1C[C@@H](C)C=C2C=C[C@H](C)[C@H](CC[C@@H]3C[C@@H](O)CC(=O)O3)[C@H]21` was tested, and the TGI (NCI-H23 lung) was 7.68 µM [sample A] and > 100 µM [sample B] and > 49.4 µM [sample C] and the TGI (SN12C renal) was 9.69 µM [sample A] and > 100 µM [sample B] and 18.7 µM [sample C].

In the case of `O=C(Cc1ccc(-c2ccc(OCCN3CCOCC3)cc2)cn1)NCc1ccccc1`, the TGI (BT-549 breast) was > 42.6 µM [sample A, mean of 2 tests] and 1.85 µM [sample B, 1 test], the TGI (DU-145 prostate) was 183 nM [sample A, mean of 2 tests] and > 3.06 µM [sample B, mean of 2 tests] and the GI50 (EKVX NSCLC) was 8.3 µM [sample A, mean of 2 tests] and 57.9 nM [sample B, mean of 2 tests]. The TGI (HCC-2998 colon) was > 100 µM [sample A, 1 test] and 1.95 µM [sample B, mean of 2 tests], the GI50 (OVCAR-4 ovarian) was 96.2 nM [sample A, mean of 2 tests] and 1.41 µM [sample B, mean of 2 tests] and the TGI (SF-539 CNS) was 26.3 µM [sample A, 1 test] and 132 nM [sample B, mean of 2 tests]. The GI50 (T-47D breast) was 10.3 µM [sample A, 1 test] and 42.8 nM [sample B, 1 test] and the GI50 (TK-10 renal) was 935 nM [sample A, mean of 2 tests] and 61 nM [sample B, 1 test].
